Measured values taken from patent US7767648B2, “Tissue specific prodrugs” (priority 2000, dated 2010).
For part of these data: Not every detail of the peptide structures is certain; ends, links or a residue may be inferred. Some of these results come from one statement about several compounds together.

Assays:
[1] = molecular target: PSMA (Homo sapiens, UniProt Q04609); assay: Hydrolysis of methotrexate analog substrates by purified PSMA (HPLC); assay type: biochemical; details: for % hydrolysis after 24 hours: incubated with PSMA 24 hours; for % hydrolysis after 48 hours: incubated with PSMA 48 hours; for % PSMA hydrolysis 24 h / % PSMA hydrolysis 48 h: Table 3, hydrolysis of substrate to APA-Asp or APA-Glu by purified PSMA
Protocol: The extent to which various peptide substrates are hydrolyzed by PSMA was determined by synthesizing a series of methotrexate analogs including the 4-N[N-2,4-diamino-6-pteridinyl-methyl)-N-methylamino-benzoate] (APA) portion of methotrexate coupled to a variety of peptides. Poly-glutamated methotrexate is available from Schirks Laboratories in Jona, Switzerland.
A series of α-linked peptides were investigated for PSMA hydrolysis. […] In Tables 1-3, to simplify identification of the type of amino acid linkages employed, α-linkages are denoted by a hyphen (for example, Glu-Glu) and all side-chain linkages are denoted by a star (for example, Glu*Glu).
Substrate specificity for the pteroyl poly-γ-glutamyl carboxypeptidase (folate hydrolase) activity of PSMA was determined by synthesizing a series of γ-linked methotrexate analogs and assaying them for hydrolysis by PSMA.
(§1) In Tables 1-3, to simplify identification of the type of amino acid linkages employed, α-linkages are denoted by a hyphen (for example, Glu-Glu) and all side-chain linkages are denoted by a star (for example, Glu*Glu). The column labeled “% PSMA Hydrolysis” refers to the percentage of hydrolysis of a substrate to APA-Asp or to APS-Glu by purified PSMA. The column labeled “% APA-Asp or -Glu” refers to the percentage of hydrolysis of substrate to APA-Asp or APA-Glu. The column labeled “% Prodrug Remaining” refers to the area of the HPLC peak attributable to starting material divided by the areas of HPLC peaks attributable to starting material, intermediate products, and final products. […] “ND” means “not determined,” in that the experiment was not performed.

[2] = Stability of PSMA substrates in human plasma, 18 hour incubation, HPLC; assay type: in vitro ADME; details: human serum/plasma
Source text: In order that the prodrugs can be administered systemically via the blood, their stability in sera must be sufficiently high to avoid hydrolysis or other degradative processes which may occur prior to the prodrugs reaching their target tissues. In addition to GGH activity, a human blood plasma glutamate carboxypeptidase (PGCP) that has significant sequence homology to PSMA and glutamate carboxypeptidase activity has been identified. Therefore, to assay hydrolysis by GGH and other serum carboxypeptidases like PGCP, the APA-Glu*Glu*Glu*Glu*Asp, APA-Glu*Glu*Glu*Glu*Gln, and APA-Glu*Glu*Glu*Glu*Glu substrates were incubated in human and mouse plasma and hydrolysis determined by HPLC analysis after an 18-hour incubation, as shown in Table 3. As noted, GGH efficiently hydrolyzes poly-γ-glutamate chains as well as poly-γ-glutamated folate and methotrexate. GGH, however, is unable to hydrolyze α-linked peptides.
as §1

[3] = Table 1, α-linked analogs, hydrolysed to methotrexate

Sequence of PSMA (Q04609 whole entry): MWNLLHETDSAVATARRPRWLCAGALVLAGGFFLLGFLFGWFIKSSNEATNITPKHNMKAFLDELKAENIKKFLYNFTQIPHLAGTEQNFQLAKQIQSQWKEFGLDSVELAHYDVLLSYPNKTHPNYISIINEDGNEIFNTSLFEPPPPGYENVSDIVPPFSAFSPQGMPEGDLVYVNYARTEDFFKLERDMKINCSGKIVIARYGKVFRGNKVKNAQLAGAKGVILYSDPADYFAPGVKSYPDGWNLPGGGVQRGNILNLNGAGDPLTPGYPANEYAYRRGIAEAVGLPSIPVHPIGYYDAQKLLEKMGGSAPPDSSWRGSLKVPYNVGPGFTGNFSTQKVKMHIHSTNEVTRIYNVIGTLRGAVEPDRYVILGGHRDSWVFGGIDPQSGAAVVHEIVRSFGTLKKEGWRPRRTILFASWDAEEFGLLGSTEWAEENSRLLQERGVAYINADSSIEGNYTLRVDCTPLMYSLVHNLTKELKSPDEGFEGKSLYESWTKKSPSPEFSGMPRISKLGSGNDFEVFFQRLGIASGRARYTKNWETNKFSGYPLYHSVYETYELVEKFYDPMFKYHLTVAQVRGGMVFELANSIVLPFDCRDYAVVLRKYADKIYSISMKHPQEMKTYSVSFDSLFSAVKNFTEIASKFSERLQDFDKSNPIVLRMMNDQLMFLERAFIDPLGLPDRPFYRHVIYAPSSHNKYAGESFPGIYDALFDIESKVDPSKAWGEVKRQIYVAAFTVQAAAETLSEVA

SMILES | % hydrolysis after 24 hours [1, 3] | % hydrolysis after 48 hours [1, 3] | % PSMA hydrolysis 24 h [1] | % PSMA hydrolysis 48 h [1] | also measured
CN(Cc1cnc2nc(N)nc(N)c2n1)c1ccc(C(=O)N[C@@H](CCC(=O)O)C(=O)N[C@@H](CCC(N)=O)C(=O)O)cc1 [APA-Glu-Gln] | 0.0% | 0.0% | – | – | –
CN(Cc1cnc2nc(N)nc(N)c2n1)c1ccc(C(=O)N[C@@H](CCC(=O)N[C@@H](CCC(=O)N[C@@H](CCC(=O)N[C@@H](CCC(=O)N[C@@H](CC(=O)O)C(=O)O)C(=O)O)C(=O)O)C(=O)O)C(=O)O)cc1 [APA-Glu*Glu*Glu*Glu*Asp] | – | – | – | – | starting material hydrolyzed to methotrexate or to other intermediate length species [2]: > 75%
CN(Cc1cnc2nc(N)nc(N)c2n1)c1ccc(C(=O)N[C@@H](CCC(=O)N[C@@H](CCC(=O)N[C@@H](CCC(=O)N[C@@H](CC(=O)O)C(=O)N[C@@H](CCC(N)=O)C(=O)O)C(=O)O)C(=O)O)C(=O)O)cc1 [APA-Glu*Glu*Glu*Asp-Gln] | – | – | 5% | 10% | –
CN(Cc1cnc2nc(N)nc(N)c2n1)c1ccc(C(=O)N[C@@H](CCC(=O)O)C(=O)N[C@@H](CCC(=O)O)C(=O)O)cc1 [APA-Glu-Glu] | 0.0% | 0.0% | 0% | 20% | –
CN(Cc1cnc2nc(N)nc(N)c2n1)c1ccc(C(=O)N[C@@H](CC(=O)O)C(=O)N[C@@H](CCC(=O)O)C(=O)O)cc1 [APA-Asp-Glu] | 21.5% | 45.6% | 70% | 99% | –
CN(Cc1cnc2nc(N)nc(N)c2n1)c1ccc(C(=O)N[C@@H](CCC(=O)N[C@@H](CC(=O)N[C@@H](CCC(=O)O)C(=O)O)C(=O)O)C(=O)O)cc1 [APA-Glu*Asp*Glu] | – | – | – | – | % hydrolysis after 24 hours ([1]; Table 2, γ-linked analogs): 37.8%; % hydrolysis after 48 hours ([1]; Table 2, γ-linked analogs): 85.5%
CN(Cc1cnc2nc(N)nc(N)c2n1)c1ccc(C(=O)N[C@@H](CCC(=O)N[C@@H](CCC(=O)N[C@@H](CCC(=O)N[C@@H](CCC(=O)N[C@@H](CCC(N)=O)C(=O)O)C(=O)O)C(=O)O)C(=O)O)C(=O)O)cc1 [APA-Glu*Glu*Glu*Glu*Gln] | – | – | – | – | starting material hydrolyzed to methotrexate or to other intermediate length species [2]: > 75%
CN(Cc1cnc2nc(N)nc(N)c2n1)c1ccc(C(=O)N[C@@H](CCC(=O)N[C@@H](CCC(=O)N[C@@H](CCC(=O)N[C@@H](CC(=O)O)C(=O)N[C@@H](CCC(=O)O)C(=O)O)C(=O)O)C(=O)O)C(=O)O)cc1 [APA-Glu*Glu*Glu*Asp-Glu] | – | – | 30% | 65% | –
CN(Cc1cnc2nc(N)nc(N)c2n1)c1ccc(C(=O)N[C@@H](CC(N)=O)C(=O)N[C@@H](CCC(=O)O)C(=O)O)cc1 [APA-Asn-Glu] | 0.0% | 0.0% | – | – | –
CN(Cc1cnc2nc(N)nc(N)c2n1)c1ccc(C(=O)N[C@@H](CCC(=O)N[C@@H](CCC(=O)N[C@@H](CCC(=O)N[C@@H](CCC(=O)N[C@@H](CCC(=O)O)C(=O)O)C(=O)O)C(=O)O)C(=O)O)C(=O)O)cc1 [APA-Glu*Glu*Glu*Glu*Glu, reference compound] | – | – | – | – | starting material hydrolyzed to methotrexate or to other intermediate length species [2]: > 75%
CN(Cc1cnc2nc(N)nc(N)c2n1)c1ccc(C(=O)N[C@@H](CC(=O)O)C(=O)N[C@@H](CCC(=O)N[C@@H](CCC(=O)N[C@@H](CC(=O)O)C(=O)N[C@@H](CCC(=O)O)C(=O)O)C(=O)O)C(=O)O)cc1 [APA-Asp-Glu*Glu*Asp-Glu] | – | – | 36% | 77% | –
CN(Cc1cnc2nc(N)nc(N)c2n1)c1ccc(C(=O)N[C@@H](CCC(=O)O)C(=O)N[C@@H](CCC(=O)O)C(=O)N[C@@H](CCC(=O)O)C(=O)O)cc1 [APA-Glu-Glu-Glu] | 0.0% | 0.0% | – | – | –
CN(Cc1cnc2nc(N)nc(N)c2n1)c1ccc(C(=O)N[C@@H](CCC(=O)O)C(=O)N[C@@H](CC(=O)O)C(=O)O)cc1 [APA-Glu-Asp] | 0.0% | 0.0% | – | – | –
